# Source: paper PMC5892938
# This is one part of the list. At the low end of the ranking, values are background and their order means little.
# Target: GST-SBP-SLBP (stem-loop binding protein) (UniProt Q14493)
# Test: targeted RNA Bind-n-Seq;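 note: DESeq read counts versus GST-SBP nonspecific binding control pulldown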
# Details: RBNS binding buffer: 25 mM Tris pH 7.5, 150 mM KCl, 3 mM MgCl2, 0.1% Tween, 0.5 mg/mL BSA, 1 mM DTT; 27 nM protein, 750 pM RNA pool; temperature not stated; high values mean tight binding
row,Sequence,binding signal (log2 fold change)
1,GGUCACGUCUCAAUCAACUCAAUUUCCAGGGAAAACCCUGGCAUUCUCAACAGCUCGCAGUCAAG,-0.0923
2,GGUCACGUCUCAAUCAACUCUUCUCCCAGGGAAAGCCCUGGCAAUCUCAACAGCUCGCAGUCAAG,0.126
3,GGUCACGUCUCAAUCAACUCAAUCUCCAGGGAAAGCCCUGGUAAACUCAACAGCUCGCAGUCAAG,-0.143
4,GGUCACGUCUCAAUCAACUCCUUAGAGGGGGGGAAAACCCCUUUGCCCUCAACAUCAACAGCUCGCAGUCAAG,0.411
5,GGUCACGUCUCAAUCAACUCUACGGAGGGGGGGAAAACCCCUUUACCCUCACUAUCAACAGCUCGCAGUCAAG,-0.165
6,GGUCACGUCUCAAUCAACUCUAGUCCCAGGGAAAACCCUGGCAUAUUCAACAGCUCGCAGUCAAG,0.133
7,GGUCACGUCUCAAUCAACUCAACAGAGGGGGGGAAAACCCCUUUACCCUCACCUUCAACAGCUCGCAGUCAAG,0.0589
8,GGUCACGUCUCAAUCAACUCAAUUCCCAGGGAAAACCCUGGCUUUUUCAACAGCUCGCAGUCAAG,0.00495
9,GGUCACGUCUCAAUCAACUCAUUUUCAGGAGUUUCCUCCUGUUUUUUCAACAGCUCGCAGUCAAG,-0.116
10,GGUCACGUCUCAAUCAACUCAGUCUCAGGAGUUUACUCCUGCAAUUUCAACAGCUCGCAGUCAAG,-0.0631
11,GGUCACGUCUCAAUCAACUCUCUAGAGGGGGGGAAAACCCCUUUACCCUCGUCCUCAACAGCUCGCAGUCAAG,0.0577
12,GGUCACGUCUCAAUCAACUCAUACGAGGGGGGGAAAACCCCUUUACCCUCAAUAUCAACAGCUCGCAGUCAAG,0.313
13,GGUCACGUCUCAAUCAACUCAUCGCCCAGGGAAAACCCUGGUUAUCUCAACAGCUCGCAGUCAAG,-0.0479
14,GGUCACGUCUCAAUCAACUCAAUCUCAGGAGUUUACUCCUGCAUACUCAACAGCUCGCAGUCAAG,-0.0996
15,GGUCACGUCUCAAUCAACUCUCACGAGGGGGGGAAAACCCCUUUACCCUCAUAUUCAACAGCUCGCAGUCAAG,-0.504
16,GGUCACGUCUCAAUCAACUCAUCCUCCAGGGAAAGCCCUGGUUAACUCAACAGCUCGCAGUCAAG,-0.0746
17,GGUCACGUCUCAAUCAACUCAACGGAGGGGGGGAAAACCCCUUUACCCUCAUUAUCAACAGCUCGCAGUCAAG,-0.223
18,GGUCACGUCUCAAUCAACUCUAUCCCAGGAGUUUACUCCUGCUAAUUCAACAGCUCGCAGUCAAG,-0.0151
19,GGUCACGUCUCAAUCAACUCAUCUCCAGGAGUUUCCUCCUGUUAUUUCAACAGCUCGCAGUCAAG,-0.0525
20,GGUCACGUCUCAAUCAACUCUCCAGAGGGGGGGAAAACCCCUUUACCCUCAAUAUCAACAGCUCGCAGUCAAG,-0.453
21,GGUCACGUCUCAAUCAACUCUUUUCCCAGGGAAAUCCCUGGUAUUCUCAACAGCUCGCAGUCAAG,0.21
22,GGUCACGUCUCAAUCAACUCUAUUCCAGGAGUUUCCUCCUGCAUUUUCAACAGCUCGCAGUCAAG,-0.0764
23,GGUCACGUCUCAAUCAACUCUAUGUCAGGAGUUUUCUCCUGCUUUCUCAACAGCUCGCAGUCAAG,0.0093
24,GGUCACGUCUCAAUCAACUCCAUCGAGGGGGGGAAAACCCCUUUACCCUCCACAUCAACAGCUCGCAGUCAAG,0.133
25,GGUCACGUCUCAAUCAACUCAUCCUCCAGGGAAAACCCUGGCUAUCUCAACAGCUCGCAGUCAAG,-0.0404

row,Sequence,binding signal (log2 fold change)
1,GGUCACGUCUCAAUCAACUCAUUUUCAGGAGUUUUCUCCUGCUUAUUCAACAGCUCGCAGUCAAG,0.0365
2,GGUCACGUCUCAAUCAACUCUUCUCCCAGGGAAAUCCCUGGUAAUGUCAACAGCUCGCAGUCAAG,-0.194
3,GGUCACGUCUCAAUCAACUCAAUUUCAGGAGUUUCCUCCUGCAAUCUCAACAGCUCGCAGUCAAG,0.0787
4,GGUCACGUCUCAAUCAACUCAUUCGAGGGGGGGAAAACCCCUUUACCCUCAAUUUCAACAGCUCGCAGUCAAG,-0.107
5,GGUCACGUCUCAAUCAACUCUUUUUCCAGGGAAAACCCUGGCUUUUUCAACAGCUCGCAGUCAAG,-0.0664
6,GGUCACGUCUCAAUCAACUCAAUUCCAGGAGUUUGCUCCUGCAUUUUCAACAGCUCGCAGUCAAG,0.0103
7,GGUCACGUCUCAAUCAACUCUUUCUCAGGAGUUUACUCCUGCAUUUUCAACAGCUCGCAGUCAAG,0.162
8,GGUCACGUCUCAAUCAACUCUUUUCCCAGGGAAAACCCUGGUUUUUUCAACAGCUCGCAGUCAAG,0.0739
9,GGUCACGUCUCAAUCAACUCAAGUCCAGGAGUUUCCUCCUGUUAUUUCAACAGCUCGCAGUCAAG,0.0242
10,GGUCACGUCUCAAUCAACUCAAUUCCAGGAGUUUACUCCUGCUUUUUCAACAGCUCGCAGUCAAG,0.0374
11,GGUCACGUCUCAAUCAACUCUUCCGCAGGAGUUUCCUCCUGGUAUCUCAACAGCUCGCAGUCAAG,-0.026
12,GGUCACGUCUCAAUCAACUCAACUCCAGGAGUUUACUCCUGCAUACUCAACAGCUCGCAGUCAAG,0.111
13,GGUCACGUCUCAAUCAACUCCUCAGAGGGGGGGAAAACCCCUUUGCCCUCCAAUUCAACAGCUCGCAGUCAAG,-0.091
14,GGUCACGUCUCAAUCAACUCUUCCCCCAGGGAAAUCCCUGGCAUUUUCAACAGCUCGCAGUCAAG,0.105
15,GGUCACGUCUCAAUCAACUCUUUUUCAGGAGUUUCCUCCUGCAUUCUCAACAGCUCGCAGUCAAG,0.0298
16,GGUCACGUCUCAAUCAACUCUUACGAGGGGGGGAAAACCCCUUUGCCCUCAUUAUCAACAGCUCGCAGUCAAG,-0.0983
17,GGUCACGUCUCAAUCAACUCAAUUUCAGGAGUUUACUCCUGCUAAGUCAACAGCUCGCAGUCAAG,-0.0766
18,GGUCACGUCUCAAUCAACUCAUUAGAGGGGGGGAAAACCCCUUUACCCUCAUCGUCAACAGCUCGCAGUCAAG,-0.446
19,GGUCACGUCUCAAUCAACUCAUUUUCAGGAGUUUCCUCCUGCUAUUUCAACAGCUCGCAGUCAAG,0.246
20,GGUCACGUCUCAAUCAACUCUUUUUCCAGGGAAAACCCUGGCAAAUUCAACAGCUCGCAGUCAAG,0.0713
21,GGUCACGUCUCAAUCAACUCAUCGUCAGGAGUUUUCUCCUGUAAACUCAACAGCUCGCAGUCAAG,0.313
22,GGUCACGUCUCAAUCAACUCUUCUCCCAGGGAAAGCCCUGGUAAAUUCAACAGCUCGCAGUCAAG,-0.279
23,GGUCACGUCUCAAUCAACUCUUCUUCAGGAGUUUUCUCCUGUUUACUCAACAGCUCGCAGUCAAG,0.0488
24,GGUCACGUCUCAAUCAACUCUUCUCCCAGGGAAAUCCCUGGUAUACUCAACAGCUCGCAGUCAAG,0.329
25,GGUCACGUCUCAAUCAACUCAGUCUCAGGAGUUUUCUCCUGCAAUUUCAACAGCUCGCAGUCAAG,-0.0824

row,Sequence,binding signal (log2 fold change)
1,GGUCACGUCUCAAUCAACUCUAUAGAGGGGGGGAAAACCCCUUUGCCCUCAAAAUCAACAGCUCGCAGUCAAG,-0.0818
2,GGUCACGUCUCAAUCAACUCUUCCUCAGGAGUUUACUCCUGUUAUUUCAACAGCUCGCAGUCAAG,0.0306
3,GGUCACGUCUCAAUCAACUCAAAAGAGGGGGGGAAAACCCCUUUGCCCUCAAUUUCAACAGCUCGCAGUCAAG,0.262
4,GGUCACGUCUCAAUCAACUCAUCGCCAGGAGUUUACUCCUGCUAUUUCAACAGCUCGCAGUCAAG,0.00946
5,GGUCACGUCUCAAUCAACUCUUCGCCCAGGGAAAACCCUGGUAAUCUCAACAGCUCGCAGUCAAG,-0.0666
6,GGUCACGUCUCAAUCAACUCAAUCCCCAGGGAAAACCCUGGCAAUCUCAACAGCUCGCAGUCAAG,0.0836
7,GGUCACGUCUCAAUCAACUCAAUUCCCAGGGAAAACCCUGGCUAUCUCAACAGCUCGCAGUCAAG,-0.144
8,GGUCACGUCUCAAUCAACUCCCACGAGGGGGGGAAAACCCCUUUACCCUCAUCCUCAACAGCUCGCAGUCAAG,-0.409
9,GGUCACGUCUCAAUCAACUCAUUUUCAGGAGUUUCCUCCUGUAUAUUCAACAGCUCGCAGUCAAG,0.0182
10,GGUCACGUCUCAAUCAACUCUAUCUCCAGGGAAAACCCUGGUUUAUUCAACAGCUCGCAGUCAAG,-0.0687
11,GGUCACGUCUCAAUCAACUCUCAAGAGGGGGGGAAAACCCCUUUACCCUCACUAUCAACAGCUCGCAGUCAAG,0.187
12,GGUCACGUCUCAAUCAACUCCUUCGAGGGGGGGAAAACCCCUUUACCCUCACACUCAACAGCUCGCAGUCAAG,-0.346
13,GGUCACGUCUCAAUCAACUCAUCCUCAGGAGUUUCCUCCUGUUUACUCAACAGCUCGCAGUCAAG,-0.015
14,GGUCACGUCUCAAUCAACUCACUAGAGGGGGGGAAAACCCCUUUACCCUCCUUAUCAACAGCUCGCAGUCAAG,-0.131
15,GGUCACGUCUCAAUCAACUCAGUCCCAGGAGUUUCCUCCUGCAAUCUCAACAGCUCGCAGUCAAG,-0.072
16,GGUCACGUCUCAAUCAACUCAUUCCCAGGAGUUUCCUCCUGCAAUUUCAACAGCUCGCAGUCAAG,-0.121
17,GGUCACGUCUCAAUCAACUCAUUCCCAGGAGUUUCCUCCUGCUAACUCAACAGCUCGCAGUCAAG,0.178
18,GGUCACGUCUCAAUCAACUCUACUCCCAGGGAAAUCCCUGGCUAUCUCAACAGCUCGCAGUCAAG,-0.071
19,GGUCACGUCUCAAUCAACUCAACUUCAGGAGUUUGCUCCUGCUUACUCAACAGCUCGCAGUCAAG,0.052
20,GGUCACGUCUCAAUCAACUCGUCUUCAGGAGUUUCCUCCUGCAAUUUCAACAGCUCGCAGUCAAG,0.211
21,GGUCACGUCUCAAUCAACUCUUUUCCAGGAGUUUUCUCCUGUUAAUUCAACAGCUCGCAGUCAAG,-0.0553
22,GGUCACGUCUCAAUCAACUCUACUUCCAGGGAAAACCCUGGCUAACUCAACAGCUCGCAGUCAAG,-0.00109
23,GGUCACGUCUCAAUCAACUCUUCUUCCAGGGAAACCCCUGGUUAACUCAACAGCUCGCAGUCAAG,0.128
24,GGUCACGUCUCAAUCAACUCCAUGGAGGGGGGGAAAACCCCUUUACCCUCAAAUUCAACAGCUCGCAGUCAAG,-0.395
